Laboratory results reported in PubChem BioAssay AID463173 (ICCB-Longwood Screening Facility, Harvard Medical School, 2010).
Among all 52,000 compounds or so, about 4,300 (8.3%) were called active. No stated cut-off is given here; in the data, active means survival mostly below about 52% (no sharp cut-off); inactive means mostly above about 56%. The list shows a part of the results.

Each molecule was assayed on DeltatarO mutant (assay: S. aureus survival, RN4220 and DeltatarO strains – OD600, teichoic acid synthesis inhibitors, primary screen (AID 463173)). Settings: S. aureus RN4220 wild type/DeltatarO growth, OD600, 18 h, stronger effect = lower value, screened at 18.75 µg/mL (by protocol).
For `Cc1ccc(NC(=O)Cn2c(=O)nc(-c3ccccc3F)c3cc(Cl)ccc32)c(Br)c1`, the survival was inactive: 79%. With `COc1ccc2c(c1)N(C)/C(=C1/SC(=S)N(C)C1=O)S2` the survival was inactive: 74%. With `CCC(C)n1c(=N)c(S(=O)(=O)c2ccccc2)cc2c(=O)n3ccccc3nc21` (configuration not stated) the survival was inactive: 69%. `Cc1nn(C)c2c1c(-c1ccccc1)cc(=O)n2CC(=O)NC(C)(C)C` was tested, and the survival was inactive: 113%. In the case of `COc1ccc(C)cc1NC(=O)COCc1cc(-c2ccc(F)cc2)on1`, the survival was inactive: 105%. For `COC(=O)CC(=O)CSc1nc(C)cc(C)c1C#N`, the survival was inactive: 80%. `Cc1ccc(N2CCN(S(=O)(=O)c3c(C)[nH]c(=O)[nH]c3=O)CC2C)cc1` (configuration not stated) was tested, and the survival was inactive: 95%. `Cc1nn(Cc2noc(C(=O)NC(C)c3ccccc3)n2)c(C)c1Br` (configuration not stated) was tested, and the survival was inactive: 69%. `COc1cc(Cl)c(C)cc1NC(=O)Cn1cc(S(=O)(=O)N2CCC(C)CC2)c2ccccc2c1=O` was tested, and the survival was inactive: 117%. In the case of `CCOC(=O)c1cc(-c2ccccc2)n(CC(=O)Nc2ccc(CC)cc2)c1C`, the survival was inactive: 101%. `CCCN(CCC)c1nn2c(=O)c(C(=O)NCc3cc(Br)ccc3OC)cnc2s1` was tested, and the survival was inactive: 84%. For `Cc1ccc(CNC(=O)CCS(=O)(=O)c2cc3c(cc2C)NC(=O)CO3)cc1`, the survival was inactive: 82%. With `O=C(O)CC1S/C(=N/N=C2CCCC2)NC1=O` (configuration not stated) the survival was inactive: 80%. `O=C(CSc1nc2c(oc3ccccc32)c(=O)n1Cc1ccco1)Nc1ccccc1` was tested, and the survival was inactive: 114%. For `CCCSC1=NC2(CCN(C(=O)NC3CCCCC3)CC2)N=C1c1ccc(Cl)cc1`, the survival was inactive: 85%. For `Cc1ccc(CN2CCCN(Cc3c(C)cc(C)cc3C)S2(=O)=O)cc1`, the survival was inactive: 91%. `Cc1cccc(CSc2nc(-c3cccc(C)c3)nc3c2Cc2c(CO)cnc(C)c2O3)c1` was tested, and the survival was inactive: 52%. `CC(C)c1ccc(NC(=O)CSC2=Nc3ccccc3C3=NC(CCC(=O)NCc4ccco4)C(=O)N23)cc1` (configuration not stated) was tested, and the survival was inactive: 80%. In the case of `COc1ccc(OC)c(CCNC(=O)CCn2c(=O)c3cccn3c3ccc(F)cc32)c1`, the survival was inactive: 58%. With `Cc1cccc(S(=O)(=O)c2cn(C)c3cc(N4CCN(c5ccc(F)cc5)CC4)c(F)cc3c2=O)c1` the survival was inactive: 71%. In the case of `CCc1nnc(SCC(=O)N(CC)c2ccccc2)c2cc3oc(C)cc3n12`, the survival was inactive: 89%. In the case of `CC(=O)N1CCCc2cc(S(=O)(=O)N3CCC(C(=O)NCc4ccccc4)CC3)ccc21`, the survival was inactive: 69%. For `Cc1ccc(Cl)cc1N1CCN(C(=O)c2cc(S(=O)(=O)N3CCCC3)c[nH]2)CC1`, the survival was inactive: 88%. For `CCc1ccc(NC(=O)C2CCCN(S(=O)(=O)c3ccc(F)cc3)C2)cc1` (configuration not stated), the survival was inactive: 71%. With `CCOC(=O)CNC(c1ccccc1)c1cc(Br)ccc1NC(=O)c1cccc(Cl)c1` (configuration not stated) the survival was inactive: 61%. For `Cc1ccc(CN2CCSc3ccc(C(=O)Nc4ccc(C)cc4)cc32)cc1`, the survival was inactive: 105%. For `CCCCNC(=O)c1ccccc1NC(=O)CN(c1ccccc1)S(=O)(=O)N(C)C`, the survival was inactive: 106%. `CCN(CC)c1ccc(NC(=O)CNCC2CCCCC2)c(C)c1` was tested, and the survival was inactive: 86%. With `O=C(CSc1nc(=O)n(Cc2ccco2)c2c1CCC2)Nc1ccccc1C(F)(F)F` the survival was inactive: 90%. In the case of `Cc1ccc2c(=O)cc(C(=O)Nc3ccc(S(=O)(=O)N4CCCCCC4)cc3)oc2c1`, the survival was inactive: 106%. For `CN(C)S(=O)(=O)c1ccc2c(c1)nnn2CCNC(=O)Nc1ccc(Cl)cc1`, the survival was inactive: 79%. In the case of `Cc1ccc(S(=O)(=O)c2nnn3c2nc(NC2CCCCC2)c2sccc23)cc1`, the survival was inactive: 109%. `Cc1ccc(Cc2cn3cc(-c4ccccc4)nc3s2)cc1` was tested, and the survival was inactive: 66%. With `Cc1ccc(C)c(Oc2nc3c(c(=O)n(C)c(=O)n3C)n2Cc2ccccc2)c1` the survival was active: 32%. With `Cc1ccc(Cn2c(=O)n(Cc3ccco3)c(=O)c3oc4ccccc4c32)cc1` the survival was inactive: 110%. `COc1ccc(S(=O)(=O)NCCNc2nc3cc(C)cc(C)c3cc2C#N)cc1` was tested, and the survival was inactive: 91%. `CCOc1ccc(OCC)c(NC(=O)c2cnc(SC)nc2-c2ccccc2)c1` was tested, and the survival was active: 32%. In the case of `Cc1ccc(C)c(NC(=O)CSc2nc3c([nH]c4ccccc43)c(=O)n2-c2ccc(F)cc2)c1`, the survival was active: 32%. `Cc1ccc(C)c(Cn2c(=O)n(-c3ccc(Cl)cc3)c(=O)c3c(C)c(C)sc32)c1` was tested, and the survival was inactive: 76%. `COc1ccc(CC(=O)NCC(c2ccc(Cl)cc2)N2CCOCC2)cc1` (configuration not stated) was tested, and the survival was inactive: 71%. In the case of `Cc1nc(-c2ccccc2)sc1CCNC(=O)C(=O)Nc1ccc(F)c(Cl)c1`, the survival was active: 6%. For `CCOC(=O)c1c(C)oc2c1c(O)c(N=O)c1ccccc12`, the survival was active: 18%. In the case of `NC(=O)c1ccccc1NC(=O)CN1c2ccccc2S(=O)(=O)c2ccccc21`, the survival was inactive: 92%. With `O=C(Nc1cc(-c2ccc(Cl)cc2)no1)c1ccc(F)cc1` the survival was inactive: 71%. In the case of `CCCSCCCNC(=O)CN1C(=O)COc2ccc(S(=O)(=O)N3CCCC3)cc21`, the survival was inactive: 71%. For `C=CCNc1nc(Cl)nc(Cl)n1`, the survival was inactive: 99%. For `COCCc1nn2c(=O)cc(COC(=O)c3ccccc3C)nc2s1`, the survival was active: -5%. With `Cc1ccc(C)c(N2CCN(C(=O)c3ccc4c(=O)n(CCc5ccccc5)c(=O)[nH]c4c3)CC2)c1` the survival was active: 55%. In the case of `COc1cc(NC(=O)C2=CC(c3ccco3)=NS(=O)(=O)N2C)cc(OC)c1OC`, the survival was inactive: 96%. In the case of `O=C(COc1ccc(F)cc1)Nc1ccccc1C(=O)OCc1cc(=O)n2ccsc2n1`, the survival was inactive: 77%. `CCCCn1c(=O)c2oc3ccccc3c2n(Cc2ccccc2C)c1=O` was tested, and the survival was inactive: 55%. With `CCOC(=O)c1[nH]c2c(c1Cc1ccccc1OC)C(=O)CC(c1ccccc1)C2` (configuration not stated) the survival was inactive: 114%. In the case of `O=C(NCc1ccc(Cl)cc1)C1CCN(c2ncnc3c2nc2n3CCCCC2)CC1`, the survival was inactive: 61%. For `O=C(OC(C(=O)NCc1cccs1)c1ccccc1Cl)c1ccco1` (configuration not stated), the survival was inactive: 98%. For `CCc1ccc(NC(=O)CSc2nc3c(c(=O)[nH]2)CN(Cc2ccc(C)cc2)CC3)cc1`, the survival was inactive: 96%. In the case of `CCOc1ccccc1C(=O)NCC(c1cccs1)S(=O)(=O)c1ccc(F)c(C)c1` (configuration not stated), the survival was inactive: 67%. With `O=C1c2cccc3cccc(c23)C(=O)N1c1ccncc1` the survival was inactive: 83%. `COCc1cc(C)nc2c1C(=O)NC(c1ccc(Br)cc1)N2Cc1ccccc1` (configuration not stated) was tested, and the survival was inactive: 69%. For `COc1cccc(N2CCN(C(=O)Cn3nc(C)n4c(cc5c(OC)cccc54)c3=O)CC2)c1`, the survival was inactive: 90%. In the case of `CCc1ccc(-n2nnc(-c3nc(-c4ccc(C)cc4)no3)c2N)cc1`, the survival was inactive: 97%. `COc1cc(Cl)c(C)cc1NC(=O)Cn1c2ncccc2c(=O)n1-c1ccccc1` was tested, and the survival was inactive: 91%. With `COc1ccc(Cl)cc1C(=O)NCc1nnnn1-c1ccccc1` the survival was inactive: 117%. With `COc1nnc(-c2ccc(N3CCCCC3)c(NC(=O)c3ccccc3Cl)c2)c2ccccc12` the survival was active: -1%. In the case of `CCc1ccc(NC(=O)C(=O)NCC(c2cccnc2)N2CCc3ccccc3C2)cc1` (configuration not stated), the survival was inactive: 64%. With `COc1ccc(-c2cc(C)no2)cc1S(=O)(=O)NCc1ccco1` the survival was inactive: 117%. With `COc1ccc(-n2c(SCc3ccccc3F)nc3c([nH]c4ccccc43)c2=O)cc1OC` the survival was inactive: 68%. For `COc1cc(NC(=O)c2c3c(nc4ccccc24)C(=O)N(C2CCCCC2)C3)cc(OC)c1`, the survival was inactive: 117%. `CCOC(=O)c1c(-c2ccc(C)cc2)csc1NC(=O)c1cc(=O)c2cc(C)cc(C)c2o1` was tested, and the survival was inactive: 111%. `NS(=O)(=O)c1ccc(S(=O)(=O)N(Cc2ccccc2F)CC2CCCO2)cc1` (configuration not stated) was tested, and the survival was inactive: 75%. In the case of `O=C(CSc1c2c(nc3cc(Cl)ccc13)CCCC2)N1CCN(c2ccccc2)CC1`, the survival was active: 33%. For `CC1CCN(C(=O)Cn2cc(SCC(=O)Nc3ccccc3)c3ccccc32)CC1`, the survival was inactive: 67%. For `COc1cccc(-c2nc(SCC(=O)NCc3ccco3)c3c(=O)n(C)c(=O)n(C)c3n2)c1`, the survival was inactive: 73%. With `CCOC(=O)c1noc2ncnc(N3CCN(c4cccc(C(F)(F)F)c4)CC3)c12` the survival was inactive: 82%. With `Cc1ccc(C(=O)Nc2nc3nc(-c4ccccc4)cc(=O)n3[nH]2)cc1` the survival was inactive: 121%. In the case of `CCCCCOC(=O)CSc1nc2sc3c(c2c(=O)n1-c1ccccc1)CC(C)(CC)OC3` (configuration not stated), the survival was active: 36%. In the case of `O=C(Nc1cc(-c2ccccc2F)nn1-c1ccccc1)c1ccccc1Br`, the survival was inactive: 84%. In the case of `Cc1ccc(S(=O)(=O)Cc2nc(-c3ccc(C(=O)NCc4ccccc4C)cc3)oc2C)cc1`, the survival was inactive: 101%. `COc1ccc(Cn2ccn(Cc3cccc(Cl)c3)c(=O)c2=O)cc1` was tested, and the survival was inactive: 112%. `CC(=O)c1ccc(NC(=O)C2=CC(c3ccc(C)cc3)=NS(=O)(=O)N2C)cc1` was tested, and the survival was inactive: 67%. In the case of `CCCn1cc(S(=O)(=O)c2ccc(OC)cc2)c(=O)c2cc(F)c(N3CCCC(C)C3)cc21` (configuration not stated), the survival was inactive: 76%. In the case of `Cc1ccn2c(=O)cc(CSc3nnc(C)s3)nc2c1`, the survival was inactive: 77%. For `COc1ccc(OC)c(C(=O)CSc2ncc3c(n2)-c2ccccc2N(Cc2ccccc2C)S3(=O)=O)c1`, the survival was inactive: 60%. In the case of `Cc1cccc(CCn2c(=O)c3ccccc3n(CC(=O)Nc3ccccc3F)c2=O)c1`, the survival was inactive: 76%. `CCN(Cc1ccccc1)Cc1c(O)ccc2c(=O)c(-c3ccc(Cl)cc3)c(C(F)(F)F)oc12` was tested, and the survival was inactive: 67%. For `Cc1ccc(C)c(N2CCN(CCCNC(=O)c3cnn(-c4ccccc4)c3C3CCN(C(=O)OC(C)(C)C)CC3)CC2)c1`, the survival was inactive: 104%. For `O=C(NCc1ccccc1Cl)c1c2c(nc3ccccc13)C(=O)N(C1CCCCC1)C2`, the survival was inactive: 92%. `Cc1ccc2c(c1)N(CC(=O)N1CCCC1)C(=O)C(C)O2` (configuration not stated) was tested, and the survival was inactive: 91%.
